In all, about 33,000 sequences were measured (“E-score (-0.5 to 0.5)”: median about -0.012, highest 2% from about 0.29 on). This is one part of the list.
These sequences were tested against T1, Ybr033w (UniProt P38073) (assay: PBM E-score (8-mer binding enrichment) (E-score (-0.5 to 0.5)); higher = stronger / more preferred TF binding; most listed sequences are background and not binding sites). Details: protein concentration: 200 nM; construct: GST-full length.
T1 sequence: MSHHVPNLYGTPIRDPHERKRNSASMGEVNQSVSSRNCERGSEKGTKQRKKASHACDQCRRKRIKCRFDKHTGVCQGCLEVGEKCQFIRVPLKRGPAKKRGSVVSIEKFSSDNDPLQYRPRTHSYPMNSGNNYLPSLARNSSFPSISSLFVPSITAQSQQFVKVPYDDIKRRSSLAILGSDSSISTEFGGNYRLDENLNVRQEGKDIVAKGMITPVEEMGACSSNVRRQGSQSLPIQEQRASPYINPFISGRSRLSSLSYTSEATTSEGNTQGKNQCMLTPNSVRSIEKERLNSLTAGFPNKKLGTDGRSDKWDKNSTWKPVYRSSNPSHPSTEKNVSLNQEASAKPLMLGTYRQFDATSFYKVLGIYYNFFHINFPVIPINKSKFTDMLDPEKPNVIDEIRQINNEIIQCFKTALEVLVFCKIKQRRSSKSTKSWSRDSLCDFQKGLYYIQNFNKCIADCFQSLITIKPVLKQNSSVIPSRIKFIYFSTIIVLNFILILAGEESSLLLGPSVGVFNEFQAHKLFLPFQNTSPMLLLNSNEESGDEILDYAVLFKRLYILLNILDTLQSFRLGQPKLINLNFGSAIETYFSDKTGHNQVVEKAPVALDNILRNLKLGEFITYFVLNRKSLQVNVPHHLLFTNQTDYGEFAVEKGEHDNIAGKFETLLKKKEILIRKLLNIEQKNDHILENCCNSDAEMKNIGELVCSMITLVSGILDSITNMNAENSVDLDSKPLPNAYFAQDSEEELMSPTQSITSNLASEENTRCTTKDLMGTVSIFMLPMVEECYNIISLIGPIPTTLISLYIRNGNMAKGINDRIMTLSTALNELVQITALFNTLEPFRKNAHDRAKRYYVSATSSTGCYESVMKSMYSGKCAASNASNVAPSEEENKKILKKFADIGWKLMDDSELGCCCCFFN
Summary of the method: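 PURExpress in vitro transcription/translation supplied GST-tagged yeast transcription factors, either full-length or DNA-binding domain. Applied at about 100-200 nM to universal all-10-mer Agilent arrays double-stranded by primer extension, the bound protein was detected with fluorescent anti-GST. E-scores, modified Wilcoxon-Mann-Whitney statistics, were given by the Universal PBM Analysis Suite to ungapped eight-base words pooled with their reverse complements after masliner normalisation.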

Sequence	PBM E-score
AAGAGGCG	-0.0966
CTGTAGGA	0.0305
CGTGACCA	-0.0518
GCCTAGCC	-0.112
AGCTCATA	0.0514
TTCGTAAA	0.189
AGGGAGCA	-0.332
AGCATTGA	0.116
ACACAACT	0.0265
AATAGTCG	0.0413
GCGAGCCC	-0.121
CCTAGATA	-0.0707
CGGTAACA	0.23
GCCCGTGA	-0.263
AATGCCAA	0.112
ACCTGCCC	-0.269
AAACAAGC	0.152
AACGGTCC	-0.242
GCTATACC	-0.149
AGCACCTG	-0.00552
CGCTCACC	-0.23
AACTCTTA	0.2
GGCCCGAC	-0.208
ATGTATTA	0.293
CGCACCGC	-0.199

Sequence	PBM E-score
ATCGAGGA	0.113
GACATCGA	-0.216
GTTACGGA	0.13
ACACTCAA	0.129
TACTCGCA	0.0352
AAGCTACC	0.123
GCTGTACC	-0.172
CCGGGACA	-0.134
AAGGTGCG	-0.163
AGGATTAG	0.161
CGCACGCC	-0.0621
ATTTGTTC	0.44
ACTCTCTG	0.122
GGTCGTAA	0.139
AGGCATAC	0.0297
ACATTCAA	0.0905
AATAACCT	0.0787
GAGTGTCC	-0.013
AATGGCCC	-0.3
CGGAATGC	0.00098
ACGTCACG	-0.0505
CCATCATA	0.059
GAGGTGAC	0.16
AGCTTACC	0.00974
GAGACAAC	0.0289

Sequence	PBM E-score
AAAGCAGT	0.0842
CAGACCTG	-0.0169
CTTATCTC	0.15
AACGAGGG	-0.0304
AGGTTAAT	0.0652
ACTCAGAA	0.11
GAAGGCTA	0.0975
CTATGAAC	0.0891
AACACCAC	-0.0257
GCTGAAAA	0.102
CGGATCCA	0.0464
AGTAGTCA	-0.0586
AGGTTTAC	-0.065
AGAGGACT	-0.27
AAGTACAA	0.135
CTCCCCTC	-0.13
CACGACAA	-0.0495
GGGTATCA	0.047
ATCCGATA	0.162
CTCTTTTC	-0.143
CTGAGAAA	0.0476
AAGATGCG	-0.0293
CTCCCGGA	0.00352
AACACGAA	0.19
GACGTGTA	0.0442

Sequence	PBM E-score
ATGCGCGA	-0.0615
TCGATCCA	-0.0145
ATCACAAG	0.107
ACTGGAGA	-0.148
ATCAGCAA	0.0477
AAAGACCC	-0.0784
ATGCTTGA	0.113
AGCCATTA	0.0982
GTCAGCAA	-0.00587
ACCATCGA	-0.0688
ACACGTTC	0.137
TGACATCA	0.0563
AAGAAACC	0.0745
TAATTAGA	0.139
AATGCCGG	-0.0476
GTTGCAAC	-0.0224
CTACATAA	0.0125
CATAGGCC	-0.172
ACTATTAC	0.134
CCTGGAGC	-0.214
CTAAAGTC	-0.103
TATAACCA	0.0875
ACATTTGA	0.108
TAAGCGAA	0.0634
AATCTTGC	0.206

Sequence	PBM E-score
ACGGCCGG	-0.181
CCAACCTC	0.0835
GGCTCAAA	-0.124
ACTCGCCC	-0.209
CTTGGCGA	-0.329
AAGAGCTA	0.0269
CAAGGATG	-0.124
AGACCAAC	-0.0961
GCGATCAC	-0.207
AAAAATAT	0.349
ATTGATTG	0.25
ATAAATTG	0.365
GCTTTAAC	0.0802
ACGCTATG	0.0168
CTAGGATA	0.0752
CGTGAACG	-0.302
CCATTCCC	-0.078
CGTTCACC	0.0323
AAAACGTA	0.175
GACTTTGC	-0.144
AAAACATA	0.197
AGTATCTC	0.0683
AATACGTG	0.0765
GACGGATC	0.119
GCCAGCTA	-0.153

Sequence	PBM E-score
GGCCGGAC	-0.316
CGGGTGAA	-0.038
CCCGCGCG	-0.0304
GAGAGAAA	0.0771
TAACCGTA	-0.0571
GCTATTCA	0.209
GGACCCAA	-0.141
ATCCAGGG	-0.0176
CGTCGCCA	-0.138
CTGCCTAC	0.0172
AGTCCGGG	0.0519
GTCCTGAA	-0.0199
ATGCGGCG	-0.0285
AATCCAGA	0.295
CAGAAGAA	0.037
AACATTCT	0.17
CTGGACAC	-0.277
AAACTGTT	0.239
AACTCGTG	0.203
AGCAACTG	-0.116
ACTAAAAT	0.272
TCGGACGA	0.0295
CTATTCCA	0.17
AATCGCCC	-0.276
AGGATCAT	0.261

Sequence	PBM E-score
GCGGGGTA	-0.228
AGCCCGGG	-0.267
GCAATCAA	0.093
ATTACCCC	-0.0788
CCGCGACA	0.0211
CTAAATAA	0.202
TACAATGA	0.0675
GGTGAGGA	0.0514
AAGCACGT	-0.0664
CGGTCATA	-0.0603
GCTACTAC	0.251
ATTTGGAC	0.0161
TAGCAAGA	-0.0183
CAATTACA	0.118
ACCACCGC	-0.197
CCGGACAG	-0.188
CATAGAGA	0.0779
CCCGGAAG	0.114
CCCGCCTC	-0.17
AGACGCTA	-0.125
AATGGCAA	0.0593
ATAGCGGC	-0.106
ATATTAGC	0.215
GGTAGGAC	-0.277
AGGTCACG	-0.203

Sequence	PBM E-score
AATGACAC	0.0865
CCTAGCAC	-0.118
TAAGATTA	0.11
CTCGACGC	-0.0138
CCATCTAC	0.00382
CCAGATGG	-0.0622
CGGAAATC	0.067
ACTATAGC	-0.192
ACGTTCAC	0.00149
CTGTACAC	-0.0974
CACCGCTG	-0.249
AGAACTAC	0.0374
GAAGCCAA	-0.0905
ATTAATGC	0.22
CGCAAAGA	-0.00133
CACAAGAG	-0.088
GCTGCTCA	-0.11
ATGGATCG	0.0268
ACCCGCTC	-0.361
GAATGCAC	0.0511
ATAGGGAA	0.0951
GGCACTCA	-0.237
CAGCATGC	-0.129
ATGGCTCG	-0.152
ATCCTTCC	-0.18

Sequence	PBM E-score
TGCGCGCA	-0.123
CTCACTCA	0.0508
CGACAAGA	0.00352
ACATTCGC	-0.0539
AAGAGTAG	-0.0106
AAGCGCGT	-0.0855
TGAGGAAA	0.0614
CGTGAAGC	-0.295
ACCAACGT	0.0804
AAGTGGGT	-0.0704
ATGAAAAA	0.165
AAGGACGC	-0.105
ACCGGTCT	-0.4
AGTTTCAG	0.0896
ACGGCTAC	0.0148
CAGTTAAG	0.0532
CCGGACCC	-0.243
GGCCCCTA	-0.447
CTTTAGCC	-0.0126
CTGTGAAC	0.027
CGTTCGTC	-0.134
CATCGTGA	-0.2
ATAGTGGA	0.0933
GAGATGCC	-0.104
ATCAATAC	0.181

Sequence	PBM E-score
GACAACGA	-0.083
TAGGTCGA	-0.00582
CCCTTATC	-0.0405
AGAGCTCC	-0.29
ACAAACGG	0.108
ATACAACA	0.152
GTAGGCTA	-0.102
ATCGGCAG	-0.0561
ACTCACTA	0.2
ATACAGAC	0.147
ATAGAGAC	0.097
GTAGATCA	0.22
GAGATAAC	-0.0832
CGAGTAGC	-0.0807
GTAAGTAA	0.07
TGAAGTAA	0.0554
AAAAGATC	0.253
AGCGCCAC	-0.314
ATCAGGAG	-0.0502
GAGCTCCC	-0.228
ACTTAACC	0.122
CGGCGACC	-0.324
CTTATTCC	0.207
AGCTTCAC	-0.161
TACCTGGA	0.025

Sequence	PBM E-score
AAGGGGAC	-0.17
ACATGCGC	-0.0429
AATAAATT	0.314
TGCTATAA	0.0493
ACGCGCTC	-0.0257
CACCATGG	-0.191
GTAATCTA	0.207
ATCTACAA	0.125
ATCAGGTA	0.0728
AGCCTAAA	0.118
CCCTGTCG	-0.23
AAGTGGAC	-0.0328
ATAGTGAG	-0.0204
CACATGCA	-0.133
CCTCGATA	0.0185
GCTTCCTA	0.0109
AACAAACG	0.183
AGTCTGGA	0.0222
GCGGTCCC	-0.239
TCTCTACA	0.105
ATGAAAGC	0.163
AGGCACGA	-0.0668
TTAGGGAA	0.0746
CAGAGAAC	0.0865
CGGATTAC	-0.014

Sequence	PBM E-score
CACGCCTA	-0.136
CCTAGAGC	-0.179
CGTTGGAG	-0.109
GTTTCACA	0.157
GGCTTTCA	-0.0296
GACTGCCA	-0.0509
GCCGCCCA	-0.284
ACGTGCCC	-0.118
AATGAAGG	0.146
AGTCAAAG	-0.051
ACGCACAA	-0.0376
ACAGTTTA	0.126
GGGGATAC	-0.269
GAGCACCC	-0.296
CAAGTCAC	-0.097
CAGATTTC	0.181
GCGCACAC	-0.141
CGCAACGC	-0.125
ATTGACTC	0.0792
ATGTTCGA	0.0468
GTCAGGGA	-0.133
TACGGATA	0.23
AGCATAAC	0.0859
GCTCGGTA	0.104
CGACTGGC	-0.0974

Sequence	PBM E-score
ATACAAGC	0.209
CAGGGTGG	-0.234
CTGTTGAC	-0.114
ACATGTGA	-0.0699
ACTTTATA	0.154
ACGTCCTC	-0.115
AGATACGC	0.00893
CAAAATAA	0.206
ATTCTACC	0.159
GATGACCA	-0.0393
ATCTGAGA	0.0954
CACATATC	0.168
AGGAATGG	-0.0847
GATCATAC	-0.0221
AGACTTCC	-0.183
CGACCTAG	0.101
AATACACC	0.249
ATAACGTC	0.0825
GCGCTTCC	-0.209
GCTTGAAA	0.0485
TCGCTTCA	-0.00325
GCCCCAAA	-0.253
GGCAGACA	0.0552
CTTTGTCA	0.0476
ACCGCAAG	-0.147

Sequence	PBM E-score
CTCAGCCC	-0.27
AAGGCGGG	-0.365
GTCGCTCA	0.00026
TCCATCCA	0.0115
ACGATGTG	0.01
TCCTTCAA	-0.0281
CATTCTCC	0.0353
AGCTACGA	-0.183
ACGCGTCG	0.0695
CGATTTTC	0.159
CGCGTGTA	-0.0195
TCTGTACA	0.149
CCTAGTCC	-0.172
AGATCTGA	-0.108
ACGTAAAG	0.0286
CCTCTGCG	-0.252
AGTATTGA	0.198
AAACGACA	0.193
GATTGCAC	0.0667

— the supplement of paper PMC3334620
